Experimental data published in publication PMC4336329 (PLoS ONE, 2015).
Hit rate of the full screen: of about 310,000 compounds, about 2,200 (0.71%) showed an effect of 50% or more. Effects have a minus sign here. Some of the results follow.

The compounds below were run against human ether-à-go-go-related gene (hERG) potassium channel (human, UniProt Q12809) (assay: primary screen, population patch clamp on CHO cells stably expressing hERG).
Chain of human ether-à-go-go-related gene (hERG) potassium channel (Q12809 whole entry, looked up): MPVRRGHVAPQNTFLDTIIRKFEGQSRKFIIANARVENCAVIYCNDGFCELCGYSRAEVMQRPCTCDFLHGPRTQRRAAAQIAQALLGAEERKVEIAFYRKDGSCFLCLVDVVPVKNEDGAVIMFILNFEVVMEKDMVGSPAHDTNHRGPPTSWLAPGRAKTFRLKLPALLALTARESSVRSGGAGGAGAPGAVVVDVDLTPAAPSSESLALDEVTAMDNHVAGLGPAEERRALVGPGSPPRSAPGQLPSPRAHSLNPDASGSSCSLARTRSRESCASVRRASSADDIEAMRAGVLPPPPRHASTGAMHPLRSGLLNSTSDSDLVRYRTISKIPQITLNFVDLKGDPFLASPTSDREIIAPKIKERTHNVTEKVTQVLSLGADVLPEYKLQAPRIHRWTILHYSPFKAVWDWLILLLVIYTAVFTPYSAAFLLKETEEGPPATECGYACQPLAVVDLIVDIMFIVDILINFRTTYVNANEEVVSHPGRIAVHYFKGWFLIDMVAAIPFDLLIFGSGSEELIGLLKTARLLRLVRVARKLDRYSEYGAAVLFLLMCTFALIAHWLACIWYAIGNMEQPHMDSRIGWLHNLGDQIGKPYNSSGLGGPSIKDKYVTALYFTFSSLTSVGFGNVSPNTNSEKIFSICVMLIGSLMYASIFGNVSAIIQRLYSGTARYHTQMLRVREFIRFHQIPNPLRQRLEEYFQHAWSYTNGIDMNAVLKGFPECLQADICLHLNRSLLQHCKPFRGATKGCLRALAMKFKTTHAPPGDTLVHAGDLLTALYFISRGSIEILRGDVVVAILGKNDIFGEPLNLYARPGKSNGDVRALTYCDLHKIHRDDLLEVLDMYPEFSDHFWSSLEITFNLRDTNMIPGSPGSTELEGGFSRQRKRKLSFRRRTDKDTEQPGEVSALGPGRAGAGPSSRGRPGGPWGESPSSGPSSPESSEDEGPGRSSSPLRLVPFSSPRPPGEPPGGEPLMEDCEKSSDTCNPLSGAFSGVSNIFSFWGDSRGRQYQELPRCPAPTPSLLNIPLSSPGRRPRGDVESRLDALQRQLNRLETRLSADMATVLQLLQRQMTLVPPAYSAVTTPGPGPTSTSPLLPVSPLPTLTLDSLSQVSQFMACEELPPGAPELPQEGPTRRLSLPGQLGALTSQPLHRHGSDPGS

Row | Compound | hERG current change (%, negative = inhibition) at 1uM [%]
1 | COc1ccc(Cl)cc1NC(=O)COC(=O)c1ccc(Cl)nc1 | -0.707
2 | CCc1ccccc1NC(=O)CSc1n[nH]c(-c2cccnc2)n1 | 2.48
3 | O=C(CN1C(=O)S/C(=C\C=C\c2ccccc2)C1=O)N1CCCCC1 | 11.8
4 | CCOC(=O)c1c(OCCO)noc1N | 13.7
5 | CC(=O)c1coc2ccc(OCC(=O)O)cc12 | -0.294
6 | CCOC(=O)C(NC(C)=O)C(=O)O (centres unmarked) | 6.58
7 | Cn1c(SCC(=O)N2CCCC2=O)nc2ccccc21 | 18.4
8 | COc1ccc(NC(=O)c2cccc(OC(F)F)c2)cc1Cl | -9.13
9 | CN(C(=O)CSc1nc(-c2ccc(C(C)(C)C)cc2)c(C#N)c(=O)[nH]1)C1CCCCC1 | 13
10 | COc1ccc(CN(C)CC(=O)NC(=O)Nc2ccccc2F)cc1 | 3.94
11 | CCC1CCCCN1CCCNC(=O)CCNC(=O)Cn1cnc2ccccc2c1=O (centres unmarked) | 10.3
12 | CC/C(O)=C1\C(=O)CCCC1=NCc1nc2ccccc2[nH]1 | 7.75
13 | Cc1ccc(-c2c3c(=O)n(C)c(=O)n(C)c3cn2CCCN2CCOCC2)cc1 | 9.2
14 | Cc1ccc(C(=O)OC(C)C(=O)Nc2ccc(S(N)(=O)=O)cc2)cc1S(=O)(=O)N1CCOCC1 (centres unmarked) | 0.0081
15 | CCc1cccc(CC)c1NC(=S)NCCc1ccc(O)c(O)c1 | 9
16 | Cc1ccc(C(c2nnnn2CC2CCCO2)N2CCN(Cc3ccccc3)CC2)cc1 (centres unmarked) | -45.7
17 | Cc1ccc(C)c(OCCC(=O)OCC(=O)NC2CCS(=O)(=O)C2)c1 (centres unmarked) | 10.7
18 | COc1ccc(C(C(=O)NC2CCCCC2)N(Cc2ccco2)C(=O)c2ccccn2)c(OC)c1 (centres unmarked) | 6.08
19 | CC(C)NC(=O)c1cc(-c2ccc(Br)cc2)on1 | -2.63
20 | c1ccc(-c2nnc3sc(-c4csc5c4CCCC5)nn23)cc1 | 4.3
21 | O=C(O)c1cccc(C(=O)c2cccc3ccccc23)c1 | 5.51
22 | COc1ccc(C(=O)c2ccc(N3CCN(C4CC(=O)NC4=O)CC3)cc2)cc1F (centres unmarked) | 0.434
23 | Cc1c(C(=O)O)c2cc(O)ccc2n1-c1ccccc1 | -0.33

Row | Compound | hERG current change (%, negative = inhibition) at 1uM [%]
24 | CC1CCCCN1C(=O)CSc1nnc(-c2cccnc2)o1 (centres unmarked) | 16.2
25 | CN(C(=O)c1ccc([N+](=O)[O-])cc1)c1ccccc1C(=O)NCc1ccccc1 | 14.1
26 | COc1cc(OC)cc(C(=O)n2nc(C)cc2C)c1 | -0.526
27 | CC(=O)c1cn(CC(=O)NCCc2c[nH]c3ccccc23)c2ccccc12 | 7.64
28 | CC(C)OCCCNc1nc(-c2ccccc2)nc2ccccc12.Cl | 10.2
29 | CCCCc1nc2cc(C(=O)NC3CCOC(C)(C)C3)ccc2o1 (centres unmarked) | 11.7
30 | COc1ccccc1CN1C(=O)[C@@H]2C(CCC(N)=O)NC3(C(=O)Nc4c3ccc(Cl)c4C)[C@@H]2C1=O (some centres unmarked) | 1.91
31 | COc1ccc(C2CC(c3c(-c4ccccc4)c4cc(Cl)ccc4[nH]c3=O)=NN2S(C)(=O)=O)cc1OC (centres unmarked) | 8.1
32 | COc1ccc(-c2oc3ncnc(NCCCN(C)C)c3c2-c2ccc(OC)cc2)cc1 | 4.28
33 | CC(=O)C1C(=O)CC(C)(O)C(C(C)=O)C1c1ccc(N(C)C)cc1 (centres unmarked) | 13.7
34 | COc1cc(/C=N/NC(=O)CCc2n[nH]c(=O)[nH]c2=O)ccc1O | 6.81
35 | CC1(C)CC(CC(=O)O)(c2ccc(F)cc2)CCO1 (centres unmarked) | 8.39
36 | NC(=O)c1cccnc1Oc1ccc(Cl)cc1 | 9.26
37 | CCCN1C=CC(=C/C=C(\C#N)C(=O)OCC)C=C1 | -1.45
38 | COc1ccc(-n2ncc3c2CC(C)(C)CC3NC(=O)C2CCN(C(C)=O)CC2)cc1 (centres unmarked) | 18.3
39 | COc1cc([N+](=O)[O-])ccc1NC(=O)CSc1n[nH]c(C(C)C)n1 | 8.6
40 | O=C(NC1CCCC1)C(c1ccncc1)N(C(=O)Cc1cccs1)c1cccc(F)c1 (centres unmarked) | 6.68
41 | CSc1nccc(Oc2ccccc2Cl)n1 | 10.4
42 | Fc1cc(F)c(C2SCCN2C(=S)Nc2cccc(C(F)(F)F)c2)c(F)c1 (centres unmarked) | 16.3
43 | Cc1cc(N=Cc2c(O)n(-c3cccc(Cl)c3)c(=O)c3ccccc23)no1 | 8.47
44 | CC(C)N1CCCC(CNC(=O)CCc2nnc(CCCCc3ccccc3)o2)C1 (centres unmarked) | 15.6
45 | CCN(CC)S(=O)(=O)c1ccc(C(=O)Nc2nnc(C(C)C)s2)cc1 | -0.0321
46 | CC(=O)Nc1c(NC(C)C)c2ccccc2oc1=O | 13.3

Row | Compound | hERG current change (%, negative = inhibition) at 1uM [%]
47 | O=C1CCCN1CCC(=O)N1CCCC(CO)(Cc2ccccc2)C1 (centres unmarked) | 30.9
48 | CCOC(=O)c1cnc(SC)nc1Sc1ccccc1 | -7.02
49 | Cc1ccc(S(=O)(=O)N(Cc2ccccc2)c2ccccc2C(=O)Nc2ccccc2C(=O)NCc2ccco2)cc1 | 5.5
50 | O=S(=O)(Cc1ccccc1)N1CCN(Cc2ccc3c(c2)OCO3)CC1 | 4
51 | COc1ccc(CC(=O)N2CCN(c3ccccc3F)CC2)cc1OC | -0.371
52 | COc1ccc(CC(=O)n2nc(-c3cccnc3)nc2N)cc1 | -1.12
53 | Cc1ccc(C(=O)NCCc2nc3ccccc3[nH]2)cc1[N+](=O)[O-] | 0.737
54 | C=CCN(c1ccc(C(=O)N(CC)CC)cc1)S(C)(=O)=O | 0.31
55 | COc1ccccc1Oc1ccc(-c2cnc3ccccc3n2)cc1[N+](=O)[O-] | 15.4
56 | C#CCOc1c(Br)cc(/C=C2/C(=O)ON=C2C)cc1OCC | 17.3
57 | COc1ccc(CCNC(=O)N[C@@H](Cc2ccccc2)C(=O)O)cc1 | 17.3
58 | COC(=O)c1ccc(-c2csc(NC(=O)c3ccc(S(=O)(=O)N4CCc5ccccc5C4)cc3)n2)cc1 | 5.62
59 | CN=C1NN=C(c2cc(C)n(-c3ccc(Cl)cc3)c2C)CS1 | 12.7
60 | Nn1c(SCC(=O)NCc2ccccc2)nnc1C1CC1 | 3.23
61 | C/C(=N/NC(N)=S)c1ccccc1[N+](=O)[O-] | 6.12
62 | COC(=O)c1c(-c2ccccc2)csc1N1C(=O)Nc2ccccc2N1O | 14.6
63 | O=C(Nc1cccc([N+](=O)[O-])c1)ONC1=NCCCCC1 | -2.5
64 | COc1ccc(-n2c(SCC(=O)N3CCOCC3)nc(O)cc2=O)cc1 | 15
65 | CCOC(=O)Cc1csc(NC(=O)COc2ccc(OC)cc2)n1 | -1.79
66 | C[C@@H]1C[C@@H]2O[C@H]2/C=C\C=C\C(=O)Cc2c(Cl)c(O)cc(O)c2C(=O)O1 | 17.1
67 | COC(=O)C1=C(c2ccc(C(C)=O)cc2)C[C@@H]2CC[C@H]1N2C(=O)N1CCC(O)(c2ccc(Cl)cc2)CC1 | -3.23
68 | O=C(CSc1nnc(-c2ccc(Cl)cc2Cl)n1C1CCCCC1)N1CCCC1 | -2.08
69 | CC1(C#N)c2ccccc2C(Br)=CN1C(=O)c1ccccc1 (centres unmarked) | 2.31

Row | Compound | hERG current change (%, negative = inhibition) at 1uM [%]
70 | C#CCNC(=O)C1=C[C@H](C2CCCCC2)C[C@H](OCCCCO)O1 | 9.57
71 | Cc1ccc(C(=O)Nc2ncc(Cc3ccc(F)cc3)s2)o1 | 2.13
72 | CCC(C)NS(=O)(=O)c1cc2c3c(c1)CCC(=O)N3CCC2 (centres unmarked) | 21
73 | CCC1=C2CC[C@H]3C(=O)N(c4ccccc4)C(=O)[C@H]3[C@H]2[C@@]2(C)C(=NCc3ccccc3)OC(=O)N2C1=O | 11.8
74 | CC(/C=N/n1c(-c2ccc(Cl)cc2)n[nH]c1=S)=C\c1ccco1 | 4.95
75 | CC(C)c1ccc(NC(=O)Cn2c(=O)oc3cccnc32)cc1 | 1.99
76 | N#CCC(=O)Nc1ccc(C(=O)OCC(=O)c2ccc3c(c2)NC(=O)CO3)cc1 | 8.51
77 | CCOc1ccc(NC(=O)C/C(N)=N/O)cc1 | 9.45
78 | Cc1ccc(NC(=O)CSc2nc(O)cc(=O)n2C)cc1 | 7.43
79 | CC1C(c2ccccc2)=[N+]([O-])C2(CCCC2)N1O (centres unmarked) | 9.24
80 | Cc1cccc(C)c1NC(=S)N(CCCN1CCCCC1)Cc1ccco1 | -6.59
81 | COP(=O)(OC)C(NC(=O)C(C)(C)C)=C(Cl)Cl | 4.85
82 | CC1(C)Cc2c(C#N)c(NCCc3ccccc3)nc(-c3ccco3)c2CO1 | 9.72
83 | Cc1cc(NC(=O)CSc2nccn2-c2cccc(Cl)c2)no1 | 10
84 | C=CCN1C(=O)c2ccccc2NC1c1ccc(Br)s1 (centres unmarked) | 11.4
85 | c1ccc(-c2n[nH]c(-c3ccccn3)n2)nc1 | 18.1
86 | O=C(NCc1ccncc1)c1ccc(NS(=O)(=O)c2cccc([N+](=O)[O-])c2)cc1 | 22.1
87 | COc1ccc(-c2noc(C3CCCN(C(=O)c4ccc(F)cc4)C3)n2)cc1 (centres unmarked) | 4.85
88 | CC(C)CC(=O)NC(=S)Nc1ccc(F)cc1F | 2.27
89 | N#Cc1nc(COc2ccccc2F)oc1NCc1ccc(F)cc1 | 4.13
